The supplement of paper PMC9588766
Counter-ions that a name gives are not always drawn. In all, about 1,900 compounds were measured (“cell viability of compound + 1 nM pemigatinib relative to pemigatinib-only (DMSO) wells”: median about 0.95, lowest 2% from about 0.22 on). Some of the results follow.

Test system: PDC-DUC18828
Assay: cell viability of compound + 1 nM pemigatinib relative to pemigatinib-only (DMSO) wells (fraction); PDC-DUC18828 is a patient-derived cholangiocarcinoma cell line; higher = less growth inhibition
Conditions: first compound 1 µM; pemigatinib concentration 1 nM; 72 h
Experimental: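 Selleck Bioactive library screen in the patient-derived FGFR2 fusion-positive ICC cell line PDC-DUC18828 (500 cells/well). Each compound was tested at 1 uM with 1 nM pemigatinib, in triplicate, for 72 h. Viability was read by CellTiter-Glo and normalised to plate DMSO controls. Value is the paper's averaged normalised viability.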

Compound | cell viability
CCC[C@H](Nc1nc(-c2ccc(NC(=O)NCC)c(OC)c2)ncc1C)c1cccnc1 [CYT997 (Lexibulin)] + CCN1C(=O)N(c2c(F)c(OC)cc(OC)c2F)Cc2cnc3[nH]c(CN4CCOCC4)cc3c21 [pemigatinib] | 0.268
COc1cc2ncc(-c3ccccc3)nc2cc1OC [Tyrphostin AG 1296] + CCN1C(=O)N(c2c(F)c(OC)cc(OC)c2F)Cc2cnc3[nH]c(CN4CCOCC4)cc3c21 [pemigatinib] | 1.04
CC(=O)[C@@]1(O)CC[C@H]2[C@@H]3CCC4=CC(=O)CCC4=C3[C@@H](c3ccc(N(C)C)cc3)C[C@@]21C [Ulipristal] + CCN1C(=O)N(c2c(F)c(OC)cc(OC)c2F)Cc2cnc3[nH]c(CN4CCOCC4)cc3c21 [pemigatinib] | 0.966
CC(C)(Oc1ccc(Cl)cc1)C(=O)O [Clofibric Acid] + CCN1C(=O)N(c2c(F)c(OC)cc(OC)c2F)Cc2cnc3[nH]c(CN4CCOCC4)cc3c21 [pemigatinib] | 0.993
COc1cc(Nc2ncc(F)c(Nc3ccc4c(n3)NC(=O)C(C)(C)O4)n2)cc(OC)c1OC + CCN1C(=O)N(c2c(F)c(OC)cc(OC)c2F)Cc2cnc3[nH]c(CN4CCOCC4)cc3c21 [pemigatinib] | 0.97
COc1cc(Nc2ncc(F)c(Nc3ccc4c(n3)NC(=O)C(C)(C)O4)n2)cc(OC)c1OC [R406 (free base)] + CCN1C(=O)N(c2c(F)c(OC)cc(OC)c2F)Cc2cnc3[nH]c(CN4CCOCC4)cc3c21 [pemigatinib] | 0.964
O=NO [Sodium Nitrite] + CCN1C(=O)N(c2c(F)c(OC)cc(OC)c2F)Cc2cnc3[nH]c(CN4CCOCC4)cc3c21 [pemigatinib] | 0.96
O=C(O)CCC(=O)Nc1ccc(Br)cn1 [Bikinin] + CCN1C(=O)N(c2c(F)c(OC)cc(OC)c2F)Cc2cnc3[nH]c(CN4CCOCC4)cc3c21 [pemigatinib] | 0.899
COc1ccc(C(=O)Nc2sc3c(c2C(N)=O)CCCC3)cc1OC + CCN1C(=O)N(c2c(F)c(OC)cc(OC)c2F)Cc2cnc3[nH]c(CN4CCOCC4)cc3c21 [pemigatinib] | 1.01
CO[C@H]1O[C@@H]2O[C@@]3(C)CC[C@H]4[C@H](C)CC[C@@H]([C@H]1C)[C@@]24OO3 [Artemether] + CCN1C(=O)N(c2c(F)c(OC)cc(OC)c2F)Cc2cnc3[nH]c(CN4CCOCC4)cc3c21 [pemigatinib] | 0.916
O=c1c2ccccc2oc2ccccc12 [Xanthone] + CCN1C(=O)N(c2c(F)c(OC)cc(OC)c2F)Cc2cnc3[nH]c(CN4CCOCC4)cc3c21 [pemigatinib] | 0.961
CC(C)(C)C[C@@H]1N[C@@H](C(=O)N[C@H]2CC[C@H](O)CC2)[C@H](c2cccc(Cl)c2F)[C@]12C(=O)Nc1cc(Cl)ccc12 + CCN1C(=O)N(c2c(F)c(OC)cc(OC)c2F)Cc2cnc3[nH]c(CN4CCOCC4)cc3c21 [pemigatinib] | 0.925
NC12CC3CC(CC(C3)C1)C2 [Amantadine HCl] + CCN1C(=O)N(c2c(F)c(OC)cc(OC)c2F)Cc2cnc3[nH]c(CN4CCOCC4)cc3c21 [pemigatinib] | 1.01
Cn1ncc(Cl)c1-c1cc(C(=O)N[C@H](CN)Cc2cccc(F)c2)sc1Cl + CCN1C(=O)N(c2c(F)c(OC)cc(OC)c2F)Cc2cnc3[nH]c(CN4CCOCC4)cc3c21 [pemigatinib] | 0.758
CCCN(CCc1cccs1)[C@H]1CCc2c(O)cccc2C1 [Rotigotine] + CCN1C(=O)N(c2c(F)c(OC)cc(OC)c2F)Cc2cnc3[nH]c(CN4CCOCC4)cc3c21 [pemigatinib] | 1.02
Clc1ccc(COC(Cn2ccnc2)c2ccc(Cl)cc2Cl)c(Cl)c1 (stereo not given) [Miconazole Nitrate] + CCN1C(=O)N(c2c(F)c(OC)cc(OC)c2F)Cc2cnc3[nH]c(CN4CCOCC4)cc3c21 [pemigatinib] | 0.883
Clc1ccc(COC(Cn2ccnc2)c2ccc(Cl)cc2Cl)c(Cl)c1 (stereo not given) [Miconazole] + CCN1C(=O)N(c2c(F)c(OC)cc(OC)c2F)Cc2cnc3[nH]c(CN4CCOCC4)cc3c21 [pemigatinib] | 0.908
Cc1cc(=O)n(-c2ccccc2)n1C [Antipyrine] + CCN1C(=O)N(c2c(F)c(OC)cc(OC)c2F)Cc2cnc3[nH]c(CN4CCOCC4)cc3c21 [pemigatinib] | 0.916
CC1CCc2c(N3CCC(O)CC3)c(F)cc3c(=O)c(C(=O)O)cn1c23 (stereo not given) [Nadifloxacin] + CCN1C(=O)N(c2c(F)c(OC)cc(OC)c2F)Cc2cnc3[nH]c(CN4CCOCC4)cc3c21 [pemigatinib] | 0.931
Brc1ccc([C@H]2CN3CCSC3=N2)cc1 [(-)-p-Bromotetramisole Oxalate] + CCN1C(=O)N(c2c(F)c(OC)cc(OC)c2F)Cc2cnc3[nH]c(CN4CCOCC4)cc3c21 [pemigatinib] | 0.993
C=CC(=O)N1CCC(Oc2cc3c(Nc4ccc(Cl)c(Cl)c4F)ncnc3cc2OC)CC1 [Poziotinib (HM781-36B)] + CCN1C(=O)N(c2c(F)c(OC)cc(OC)c2F)Cc2cnc3[nH]c(CN4CCOCC4)cc3c21 [pemigatinib] | 0.542
Cc1c(Cc2ccc3ccccc3n2)c2cc(F)ccc2n1CC(=O)O + CCN1C(=O)N(c2c(F)c(OC)cc(OC)c2F)Cc2cnc3[nH]c(CN4CCOCC4)cc3c21 [pemigatinib] | 0.884
CN1CCN(C2=Nc3cc(Cl)ccc3Nc3ccccc32)CC1 [Clozapine] + CCN1C(=O)N(c2c(F)c(OC)cc(OC)c2F)Cc2cnc3[nH]c(CN4CCOCC4)cc3c21 [pemigatinib] | 0.974
CO[C@@H](C(=O)N1Cc2[nH]nc(NC(=O)c3ccc(N4CCN(C)CC4)cc3)c2C1)c1ccccc1 + CCN1C(=O)N(c2c(F)c(OC)cc(OC)c2F)Cc2cnc3[nH]c(CN4CCOCC4)cc3c21 [pemigatinib] | 0.554
C[C@H](NC(=O)[C@@H](O)c1cc(F)cc(F)c1)C(=O)N[C@@H]1C(=O)N(C)c2ccccc2-c2ccccc21 + CCN1C(=O)N(c2c(F)c(OC)cc(OC)c2F)Cc2cnc3[nH]c(CN4CCOCC4)cc3c21 [pemigatinib] | 0.992
